Test results: paper PMC4336329 (PLoS ONE, 2015)
In all, about 310,000 compounds went through this assay and about 14,000 (4.5%) showed an effect of 50% or more. Effects have a minus sign here. Some of the results follow.
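Also: peak tail current of the secondary pulse compared with the same well before compound.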

These compounds were tested against human ether-à-go-go-related gene (hERG) potassium channel (human, UniProt Q12809) (assay: primary screen, population patch clamp on CHO cells stably expressing hERG).
Chain of human ether-à-go-go-related gene (hERG) potassium channel (Q12809 whole entry, looked up): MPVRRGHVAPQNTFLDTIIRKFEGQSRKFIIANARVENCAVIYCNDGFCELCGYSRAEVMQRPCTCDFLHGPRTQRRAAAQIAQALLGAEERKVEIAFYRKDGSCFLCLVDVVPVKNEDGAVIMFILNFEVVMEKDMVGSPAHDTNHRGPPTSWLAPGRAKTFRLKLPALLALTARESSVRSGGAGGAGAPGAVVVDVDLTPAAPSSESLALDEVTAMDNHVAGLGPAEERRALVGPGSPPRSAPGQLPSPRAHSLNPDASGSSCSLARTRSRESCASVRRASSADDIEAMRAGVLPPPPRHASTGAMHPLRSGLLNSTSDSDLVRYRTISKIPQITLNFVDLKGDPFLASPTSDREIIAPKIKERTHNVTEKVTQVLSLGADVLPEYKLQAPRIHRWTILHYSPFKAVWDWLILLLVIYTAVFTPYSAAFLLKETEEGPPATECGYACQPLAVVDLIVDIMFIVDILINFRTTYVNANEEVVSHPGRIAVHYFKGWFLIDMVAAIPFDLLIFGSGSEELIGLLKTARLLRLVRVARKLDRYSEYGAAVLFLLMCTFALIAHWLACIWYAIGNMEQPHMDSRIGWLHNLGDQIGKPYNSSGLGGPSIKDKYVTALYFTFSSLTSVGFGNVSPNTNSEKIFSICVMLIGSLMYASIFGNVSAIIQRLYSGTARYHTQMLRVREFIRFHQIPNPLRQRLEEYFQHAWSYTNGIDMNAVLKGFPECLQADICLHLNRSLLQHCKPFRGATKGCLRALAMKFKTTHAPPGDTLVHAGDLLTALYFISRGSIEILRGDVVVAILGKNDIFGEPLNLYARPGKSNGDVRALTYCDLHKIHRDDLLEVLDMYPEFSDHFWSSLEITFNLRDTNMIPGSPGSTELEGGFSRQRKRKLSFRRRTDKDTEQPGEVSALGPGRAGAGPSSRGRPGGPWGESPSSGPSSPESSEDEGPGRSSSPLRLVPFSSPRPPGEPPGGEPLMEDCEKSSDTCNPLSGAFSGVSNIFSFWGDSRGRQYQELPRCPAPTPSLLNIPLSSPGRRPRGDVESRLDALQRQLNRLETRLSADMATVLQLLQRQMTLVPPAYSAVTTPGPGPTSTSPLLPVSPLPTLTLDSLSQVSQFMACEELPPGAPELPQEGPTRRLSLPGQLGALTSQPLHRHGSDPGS
In the case of `O/N=C1/CCc2nonc2/C1=N/O`, the “hERG current change (%, negative = inhibition) at 10uM” value is reported as -10.2%. `COc1ccccc1NC(=O)CSc1nc2c(oc3ccccc32)c(=O)n1C` was tested, and the “hERG current change (%, negative = inhibition) at 10uM” value was -3.07%. `COc1cccc(-c2cn(C[C@H]3CC[C@@H]([C@@H]4CC[C@H](Cn5cc(-c6cccc(OC)c6)nn5)O4)O3)nn2)c1` was tested, and the “hERG current change (%, negative = inhibition) at 10uM” value was -72.7%. `COc1ccc(-c2cc(C)no2)cc1S(=O)(=O)N1CCCCC1` was tested, and the “hERG current change (%, negative = inhibition) at 10uM” value was 2.3%. For `C(=C\c1ccccc1)/C=N/N1CCN(Cc2ccccc2)CC1`, the “hERG current change (%, negative = inhibition) at 10uM” value was 1.45%. For `CC(=O)Nc1ccc(OC(=O)c2cc3ccccc3oc2=O)cc1`, the “hERG current change (%, negative = inhibition) at 10uM” value was -19.6%. For `O/N=C/c1cc(Br)cs1`, the “hERG current change (%, negative = inhibition) at 10uM” value was 1.44%. For `NC(=O)C1(N2CCCCC2)CCN(c2ccc3nnc(-c4ccccc4)n3n2)CC1`, the “hERG current change (%, negative = inhibition) at 10uM” value was -28.9%. `COc1ccc(CCC(=O)N2CCc3ccccc32)cc1` was tested, and the “hERG current change (%, negative = inhibition) at 10uM” value was 0.873%. With `COc1cc(OC)c(C(=O)O/N=C(\N)c2ccccc2)cc1OC` the “hERG current change (%, negative = inhibition) at 10uM” value was -5.88%. In the case of `COC(=O)c1cnn(C(=O)c2ccccc2Br)c1N`, the “hERG current change (%, negative = inhibition) at 10uM” value is reported as 6.12%. With `Cn1c(=O)c(=O)n(C)c2cc([N+](=O)[O-])c([N+](=O)[O-])cc21` the “hERG current change (%, negative = inhibition) at 10uM” value was 26.1%. `Clc1ccc(CN(CC2CCCO2)C(c2cccs2)c2nnnn2C2CCCC2)cc1` (centres unmarked) was tested, and the “hERG current change (%, negative = inhibition) at 10uM” value was 3.97%. For `C(=N\N1CCN(C2c3ccccc3-c3ccccc32)CC1)/c1ccncc1`, the “hERG current change (%, negative = inhibition) at 10uM” value was 3.16%. With `CCCOc1ccc(/C=N/Nc2cc(N3CCOCC3)ncn2)c(O)c1` the “hERG current change (%, negative = inhibition) at 10uM” value was 13.4%. `COc1ccc(C(c2nnnn2CCc2ccccc2)N2CCN(C3CCCC3)CC2)cc1OC.Cl` (centres unmarked) was tested, and the “hERG current change (%, negative = inhibition) at 10uM” value was -64.3%. `CCN(Cc1ccccc1)C(=O)COC(=O)c1cc(Cl)nc(Cl)c1` was tested, and the “hERG current change (%, negative = inhibition) at 10uM” value was -0.0442%. In the case of `CC(C)N(CC(N)=O)C(=O)c1sc2cc(F)ccc2c1Cl`, the “hERG current change (%, negative = inhibition) at 10uM” value is reported as 11.8%. With `C(=N\N1CCN(c2ccccc2)CC1)/c1ccccc1` the “hERG current change (%, negative = inhibition) at 10uM” value was -8.57%. With `COC(=O)C(C)N=Cc1ccccc1` (centres unmarked) the “hERG current change (%, negative = inhibition) at 10uM” value was 12.9%. `O=C(NCCc1ccccc1)C(c1ccccc1F)N(C(=O)c1csnn1)C1CC1` (centres unmarked) was tested, and the “hERG current change (%, negative = inhibition) at 10uM” value was -1.1%. `CCCc1[nH]nc2c1C(c1ccc(OC(=O)N3CCOCC3)c(OC)c1)C(C#N)=C(N)O2` (centres unmarked) was tested, and the “hERG current change (%, negative = inhibition) at 10uM” value was 6.18%. In the case of `C/C=C/C(=O)OCC(=O)Nc1ccc(C)c(S(=O)(=O)N(C)C)c1`, the “hERG current change (%, negative = inhibition) at 10uM” value is reported as 2.59%. With `CCNc1nc(OC)nc(SCC(N)=O)n1` the “hERG current change (%, negative = inhibition) at 10uM” value was -1.41%. `O=C1CNC(=O)N1Cc1ccc(Br)cc1` was tested, and the “hERG current change (%, negative = inhibition) at 10uM” value was 0.772%. For `Cc1cccc(N(CC(=O)N2CCOCC2)S(C)(=O)=O)c1`, the “hERG current change (%, negative = inhibition) at 10uM” value was 6.69%. For `O=C(CC1Nc2cccc3cccc(c23)NC1=O)Nc1ccccc1` (centres unmarked), the “hERG current change (%, negative = inhibition) at 10uM” value was -4.74%. With `COC(=O)C(Cc1ccc(O)cc1)NC(=O)c1ccccc1` (centres unmarked) the “hERG current change (%, negative = inhibition) at 10uM” value was 13.3%. `Cc1nc(NC(=O)c2cncc(Br)c2)ccc1Br` was tested, and the “hERG current change (%, negative = inhibition) at 10uM” value was 9.65%. For `O=[N+]([O-])c1cccc(/C=N/Nc2ncc(Br)cn2)c1`, the “hERG current change (%, negative = inhibition) at 10uM” value was 19.6%. With `Cc1nc(C)c(-c2ccc(SCc3ccccc3F)nn2)s1` the “hERG current change (%, negative = inhibition) at 10uM” value was 4.94%. With `COc1cc(/C=C2\SC(=S)N(Nc3ccccc3)C2=O)cc(OC)c1OC` the “hERG current change (%, negative = inhibition) at 10uM” value was -0.509%. `CCOP1(=S)Oc2cc3c(cc2C(C(=O)OC)(C(F)(F)F)O1)OCO3` (centres unmarked) was tested, and the “hERG current change (%, negative = inhibition) at 10uM” value was 6.11%. With `O=C(COC(=O)c1ccc(Br)o1)Nc1nc2ccccc2s1` the “hERG current change (%, negative = inhibition) at 10uM” value was -13.8%. `O=C(C(Sc1ccccc1)c1ccccc1)N1CCOCC1` (centres unmarked) was tested, and the “hERG current change (%, negative = inhibition) at 10uM” value was 9.45%. With `Cc1ccc(-c2n[nH]c(=O)c3ccccc23)cc1S(=O)(=O)Nc1ccc(F)cc1` the “hERG current change (%, negative = inhibition) at 10uM” value was 1.93%. `Nc1c(-c2ccc(F)cc2)cnn1C1CCS(=O)(=O)C1` (centres unmarked) was tested, and the “hERG current change (%, negative = inhibition) at 10uM” value was 5.8%. In the case of `COc1ccc(/C=C/C(=O)NC(=S)NCc2ccccc2)cc1OC`, the “hERG current change (%, negative = inhibition) at 10uM” value is reported as 10.7%. With `CC(CC(F)(F)F)N1CCC(n2nccc2NC(=O)CCOc2ccccc2)CC1` (centres unmarked) the “hERG current change (%, negative = inhibition) at 10uM” value was -5.27%. For `COCCn1c(=O)[nH]c(=O)c2cc(C(=O)c3cc(Cl)ccc3O)cnc21`, the “hERG current change (%, negative = inhibition) at 10uM” value was -35.7%. `Cc1ccc(NS(=O)(=O)c2ccc(OCC(=O)NCC3CCCO3)cc2)cc1` (centres unmarked) was tested, and the “hERG current change (%, negative = inhibition) at 10uM” value was -8.82%. `CC(C)c1ccc(NC(=O)COC(=O)/C=C/c2cccc([N+](=O)[O-])c2)cc1` was tested, and the “hERG current change (%, negative = inhibition) at 10uM” value was 6.88%. For `CCCc1cc(=O)n2[nH]c(C)c(-c3ccc(OC)cc3)c2n1`, the “hERG current change (%, negative = inhibition) at 10uM” value was -13.9%. With `CCSc1nnc(-c2cccs2)o1` the “hERG current change (%, negative = inhibition) at 10uM” value was 10.1%. In the case of `CCOC(=O)CSc1nc(N2CCOCC2)c2c(c1C#N)CC(C)(C)OC2`, the “hERG current change (%, negative = inhibition) at 10uM” value is reported as -38.5%. For `Cl.c1ccc(CC2CNc3ccccc3CN2)cc1` (centres unmarked), the “hERG current change (%, negative = inhibition) at 10uM” value was 2.14%. For `Cn1c(C2CCCCC2)nc2ccccc21`, the “hERG current change (%, negative = inhibition) at 10uM” value was -3.5%. With `Cc1ccccc1NC1c2ccccc2C(=O)N1Cc1ccco1` (centres unmarked) the “hERG current change (%, negative = inhibition) at 10uM” value was -11.6%. For `O=C(c1ccc2c(c1)OCO2)N1CCN(c2ccccc2F)CC1`, the “hERG current change (%, negative = inhibition) at 10uM” value was -10.2%. `CCCCS/C(=C(/C#N)C(N)=O)c1cc2c([nH]1)CCCC2` was tested, and the “hERG current change (%, negative = inhibition) at 10uM” value was -12.3%. With `CCn1c(C)nc2cc(C(=O)N/N=C/c3ccc(OC)cc3)ccc21` the “hERG current change (%, negative = inhibition) at 10uM” value was -31.8%. For `O=C(NCC1CCCO1)c1ccc(COc2ccccc2)cc1` (centres unmarked), the “hERG current change (%, negative = inhibition) at 10uM” value was -56.3%. In the case of `O=C(N=C1SC2CS(=O)(=O)CC2N1c1ccccc1)C1CC1` (centres unmarked), the “hERG current change (%, negative = inhibition) at 10uM” value is reported as 19.5%. In the case of `Cc1ccc(S(=O)(=O)N2CCCC(c3nc(-c4ccc(C)o4)no3)C2)cc1` (centres unmarked), the “hERG current change (%, negative = inhibition) at 10uM” value is reported as -1.88%. In the case of `COc1ccccc1N1CCN(C2CCCN(C(=O)c3ccoc3C)C2)CC1` (centres unmarked), the “hERG current change (%, negative = inhibition) at 10uM” value is reported as 0.647%. In the case of `CCC(C)(C)NC(=O)C(c1ccc(OC)cc1)N(CC1CCCO1)C(=O)CCC(=O)Nc1cc(C)on1` (centres unmarked), the “hERG current change (%, negative = inhibition) at 10uM” value is reported as -19.4%. `COc1cc(/C=N/Nc2ccccc2[N+](=O)[O-])cc(OC)c1O` was tested, and the “hERG current change (%, negative = inhibition) at 10uM” value was 1.15%. For `O=C(/C=C/c1ccc(F)cc1)c1cc(Br)ccc1O`, the “hERG current change (%, negative = inhibition) at 10uM” value was 17.2%. For `CC1CN(C(=O)c2cc3cc([N+](=O)[O-])ccc3s2)CC(C)O1` (centres unmarked), the “hERG current change (%, negative = inhibition) at 10uM” value was -19.3%.
